Source: PubChem BioAssay AID588449 (Broad Institute, 2011)
Not every entry of the source has a single result; some have several. They are shown here; other results are not. There may be further records. Results that share an entry repeat one measurement across runs, samples, wells, individuals or studies. A tag in brackets gives the origin of a value. A, B and so on number the origins entry by entry.

Molecular target: Dual specificity tyrosine-phosphorylation-regulated kinase 1A (Rattus norvegicus) (UniProt Q63470)
Assay: Dyrk1A kinase inhibitors, NFAT signaling, dose response, biochemical, cherry-pick, plate reader, 2124-03 (AID 588449)
Conditions: recombinant Dyrk1A, ADP-Glo luminescence, NFATc1 peptide

CCOC(=O)c1ccc(-c2ccc3ncnc(NCc4ccc(C)o4)c3c2)o1
AC50: 30.1 nM [sample A] and 1.3 µM [sample B]
